# Measurements taken from PubChem BioAssay AID1347073 (National Center for Advancing Translational Sciences (NCATS), 2019).
# Hit rate of the full screen: of about 45,000 compounds, about 200 (0.44%) were called active. Another 7% or so got no clear call; they are omitted. The call rests on the fitted dose curve; in most records, active means well fitted activation curve with a large enough effect; inconclusive means small, poorly fitted or top-dose-only effect; inactive means no such curve, though single readings can be large or run the other way. This is one part of the list.
# Assay: qHTS of TDP-43 Inhibitors: NCGC Sytravon Library Screen; further: 0% is about no effect; nearly all actives have a fitted effect of over 55% in size
# Details: yeast TDP-43 toxicity rescue, BacTiter-Glo growth, 24 h; series mostly up to 46.1 µM; growth rescue (activation): at the top concentration
# Procedure, shortened: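 TDP-43-expressing yeast, pregrown in raffinose, seeded at OD600 0.02 in galactose medium with compound for 24 hr at 30 deg C. Growth read by BacTiter-Glo luminescence, so rescue of toxicity appears as activation.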
row,Compound,growth rescue (activation)
1,CN(C)C(=O)c1cn(-c2ccccc2)nc1-c1cc2ccccc2o1,inactive: 22.7%
2,COc1ccc(CCNC(=O)Cn2cnc3ccccc3c2=O)cc1OC,inactive: -14.6%
3,Cn1c(=O)c2c(ncn2CC(=O)OCC(=O)Nc2ccc(F)cc2Cl)n(C)c1=O,inactive: 5.4%
4,CC[C@H](C)[C@H](NC(N)=O)C(=O)OCC(=O)NCc1ccc(Cl)cc1,inactive: -7.13%
5,Cc1cc(C)c(S(=O)(=O)/N=C2\C=C(Nc3ccc(C(=O)O)cc3)C(=O)c3ccccc32)c(C)c1,inactive: 5.38%
6,COc1ccc(CNC(=O)Cc2ccc(-c3ccccc3)cc2)cc1OC,inactive: 22.6%
7,Cc1cc(NC(=O)COC(=O)C2CC(=O)N(c3cccc(Cl)c3)C2)no1 (stereo not drawn),inactive: 11.4%
8,[N-]=C=C1C(=S)NC(=O)[C@H]([n+]2ccccc2)[C@H]1c1ccc(Cl)cc1,inactive: -0.902%
9,CCCNC(=O)C1(C)CCN(C(=O)c2cc(C(C)(C)C)nn2C)C1 (stereo not drawn),inactive: -14.9%
10,O=C(c1cccs1)N1CCC(c2nc3c(nnn3Cc3ccccc3Cl)c(=O)[nH]2)CC1,inactive: 16.9%
11,O=C(NCC1CCCCC1)c1ccc2nc([C@@H]3O[C@H](CO)[C@H](O)[C@H](O)[C@H]3O)[nH]c2c1,inactive: 2.97%
12,CCOc1ccc(C(C(=O)NCC2CCCO2)N(Cc2ccccc2)C(=O)c2snc(C(N)=O)c2N)cc1 (stereo not drawn),inactive: -3.85%
13,Cc1csc(NC(=O)c2ccc(S(=O)(=O)N3CCN(C)CC3)cc2)n1,inactive: -7.08%
14,CCOC(=O)Cn1nnnc1CN1CCN(c2ccc(OC)cc2)CC1,inactive: 1.45%
15,C=CCn1c(SCC(=O)NCCOC)nnc1-c1cc2c(s1)CCC(CC)C2 (stereo not drawn),inactive: 6.25%
16,COc1cccc2c1O/C(=N\O)C(C(=O)Nc1cccc(C)c1C)C2 (stereo not drawn),inactive: 15.8%
17,O=C(NC1CCCC1)C1CCCN1C(=O)Nc1ccccc1Cl (stereo not drawn),inactive: 10.1%
18,NC(=O)c1nsc(C(=O)N(CC(=O)NC2CCCC2)c2cccc(C(F)(F)F)c2)c1N,inactive: -5.9%
19,CCOC(=O)C1C(=O)NC(c2ccccc2)=NC1c1cccc(Br)c1 (stereo not drawn),inactive: -7.08%
20,O=C(CCCn1cc([N+](=O)[O-])cn1)Nc1ccc2c(c1)OCO2,inactive: -0.429%
21,Cc1cc(NC(=O)c2ccccc2[N+](=O)[O-])ccc1Br,inactive: 10.5%
22,COC(=O)c1ccc(C)c(NC(=O)c2ccc(Cl)c([N+](=O)[O-])c2)c1,inactive: 20.6%
23,Cc1cc(C)nc(Sc2ccc(C=O)cc2[N+](=O)[O-])n1,inactive: 2.07%
24,COc1ccc(/C=N/NC(=O)CNS(=O)(=O)c2ccc(C)cc2)cc1,inactive: 6.65%
25,S=c1[nH]nc(COc2ccccc2)n1/N=C/c1cccc(Br)c1,inactive: 3.01%
26,Clc1ccc(/C=N/Nc2ccccn2)cc1,inactive: 17.4%
27,Cc1ccc(CS(=O)(=O)c2nsc(C)c2C#N)cc1,inactive: 16.2%

row,Compound,growth rescue (activation)
1,O=C(NCCc1ccccc1Cl)C1CC(=O)N(C2CCCCC2)C1 (stereo not drawn),inactive: -0.591%
2,CCCOC1CCCN(Cc2cn(C)nc2-c2ccccc2F)C1 (stereo not drawn),inactive: -4.47%
3,CC1=C(CCN2CCN(C3CCCC3)C(CCO)C2)C(C)(C)CCC1 (stereo not drawn),inactive: 4.76%
4,CC1=NN(c2ccc(C)cc2)C(=O)/C1=C\c1ccc(Br)s1,inactive: 13.3%
5,COc1ccc(OCC(=O)OC2CCCN(C)C2)cc1 (stereo not drawn),inactive: 0.879%
6,Cc1ccc(CNC(=O)/C=C/c2c(Cl)cccc2Cl)cc1,inactive: 14.7%
7,C=CCN(C(=O)c1csnn1)C(C(=O)NC1CCCCC1)c1ccccc1 (stereo not drawn),inactive: -10.1%
8,O=C(CN1CCC(C(=O)c2ccc3c(c2)OCCO3)CC1)NCc1ccc(F)cc1,inactive: 11.1%
9,COc1cc(NC(=O)c2ccc3c(c2)OCCO3)ccc1NC(=O)c1ccco1,inactive: 9.96%
10,Cc1ccc(NN=C2c3ccccc3-c3ccccc32)cc1,inactive: 8.14%
11,CC(C)CC(N)c1csc(Nc2cc(Oc3ccccc3)ncn2)n1 (stereo not drawn),inactive: 14.4%
12,COC(=O)CCSc1cc([N+](=O)[O-])cc2c1c(C1OCCO1)nn2-c1ccccc1,inactive: 10.2%
13,N#C/C(C(=O)NCc1ccccc1)=C1/N=C(NC(=O)c2ccco2)c2ccccc21,inactive: 18.5%
14,CCCn1c(SCC(=O)N2CCN(CC)CC2)nc2c1c(=O)n(C)c(=O)n2C,inactive: -10.7%
15,CCOC(=O)C1CCCN(C(=S)Nc2ccc(S(=O)(=O)N3CCOCC3)cc2)C1 (stereo not drawn),inactive: -3.84%
16,COc1ccc(C(=O)NNC(=O)C(=O)/C=C(\O)c2ccc(C)cc2)cc1,inactive: -28%
17,Cc1ccsc1CN(C)C(=O)c1ccc(Oc2ccccc2)cc1,inactive: -2.24%
18,CCc1nnc(NC(=O)CCC(=O)NCCc2ccc(OC)c(OC)c2)s1,inactive: -18.7%
19,CC1=C(C(=O)OC2CCCCC2)C(c2ccc(C)o2)C2=C(CCCC2=O)N1 (stereo not drawn),inactive: -17.6%
20,CC1CCN(C(=O)CSc2nnc3c(n2)[nH]c2ccc(F)cc23)CC1,inactive: -0.425%
21,C[C@@H]1CN(Cc2nc(-c3cnccn3)no2)C[C@H](C)O1,inactive: -4.31%
22,Cc1nn(C(C)C)c(C)c1CN1CCCC(C(=O)c2cccc(OC(C)C)c2)C1 (stereo not drawn),inactive: -2.52%
23,CC(C)(O)C1Cc2cc(/C=C/C(=O)O)c(O)cc2O1 (stereo not drawn),inactive: -93.3%
24,O=C(c1ccccc1)N1CCN(C(=O)c2nn3c(C(F)(F)F)cc(-c4ccco4)nc3c2Cl)CC1,inactive: -3.89%
25,CN1CCN(c2ncnc3c2ncn3[C@H]2CN(Cc3cccs3)C[C@@H](CO)O2)CC1,inactive: -3.02%
26,COc1ccc(C(=O)NNC(=O)c2ccncc2)cc1[N+](=O)[O-],inactive: -2.24%
